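1) Cells in 96-well plates. 2) Compound, 48 h, 5 concentrations. 3) Linear interpolation between surrounding doses. 4) Unreached endpoint = highest concentration. GI50 is the concentration that inhibits growth by half.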 The source made the active and inactive calls. Rule as the data show it: active = GI50 up to about 1.1 µM and inactive = higher. A value given as a limit tells only on which side of the number the result lay.

This test concerns NCI-H322M. The test is described as follows: inhibition of tumour cell growth, NCI panel, 48 h.
As to `O=C(CCl)Nc1ccc(-c2nc3ccccc3s2)cc1`, the GI50 is inactive: 5.35 µM. With `O=C1NC(c2ccccc2Cl)Nc2ccccc21` (stereo not given), the GI50 was inactive: 47.9 µM. The same measure for `COc1cc(C2c3cc4c(cc3OC(NCc3ccccc3)C2C)OCO4)cc(OC)c1OC` (stereo not given): active: 0.417 µM; for `Cc1cccc(CNc2[nH]cnc3nncc2-3)c1`: inactive: > 100 µM; for `CC1=C(O)C(O)=C(C2=C(O)C(O)=C(C)C(=O)C2=O)C(=O)C1=O`: inactive: 47.9 µM.

On to `Oc1ccnc(SCc2ccc(Cl)cc2)n1`, for which the GI50 was inactive: > 100 µM.

Turning to `N=C(N)N/N=C/c1c(-c2ccc(N)cc2)nc2sccn12`, the GI50 is inactive: 20.7 µM.

Regarding `CC(=O)N/C(=C\c1ccccc1/C=C(\NC(C)=O)c1nc2cc(C)c(C)cc2[nH]1)c1nc2cc(C)c(C)cc2[nH]1`, the GI50 was inactive: 14.3 µM. Take `NC1=CN2c3ccccc3N(CC(=O)N3CCOCC3)C2C=C1` (stereo not given): the GI50 is inactive: > 100 µM. `C=C(C)[C@@H]1CCC2=C[C@H](OC2=O)[C@@]2(C)C[C@@H]2C(=O)/C=C(/C)C(=O)[C@H]1OC(C)=O`: the GI50 was inactive: 42.6 µM.

For the molecule `N#C/N=C(\N)NCCO`, the GI50 was inactive: > 100 µM.

Turning to `CCNC(=O)c1cc(Cl)ccc1NC(=O)C12CC3CC(CC(C3)C1)C2`, the GI50 was inactive: 25.6 µM. Consider `NCCNc1ccc(NCCN)c2c1C(=O)c1c(O)ccc(O)c1C2=O`, for which the GI50 is active: 0.192 µM.

Regarding `COc1ccc(Cc2nc3ccccc3s2)cc1OC`, the GI50 is inactive: 26.4 µM. For the molecule `CCOC(=O)c1sc2nc(-c3ccccc3)nn2c1CBr`, the GI50 was inactive: 2.62 µM. For the molecule `NC1C/C(=N\O)c2c(I)sc(I)c21` (stereo not given), the GI50 was inactive: 16.8 µM. For `NC(=O)N(O)c1cccc(Br)c1`, the GI50 was inactive: > 100 µM. For `CN(C)CCOc1ccc2[nH]c(C(=O)N3CC(CCl)c4c3cc(N)c3ccccc43)cc2c1` (stereo not given), the GI50 was active: < 0.01 µM. On to `CC(C)(C)[Si](C)(C)OCC1C=CC(n2cnc3c(N)ncnc32)O1` (stereo not given), for which the GI50 is inactive: > 81.1 µM. `c1ccc(C(c2ccccc2)[P+](c2ccccc2)(c2ccccc2)c2ccccc2)cc1`: the GI50 is inactive: 1.75 µM. Take `O=C(/C=C/c1cccs1)c1ccc(C(=O)/C=C/c2cccs2)cc1`: the GI50 was inactive: > 100 µM.

As for `CCOC(=O)CSc1nc(-c2ccc(OC)cc2)c(C#N)c(=O)[nH]1`, the GI50 is inactive: > 100 µM. In the case of `C=C1CC(COc2ccc3c(C)c(C)c(=O)oc3c2C)(c2ccccc2)OC1=O` (stereo not given), the GI50 is inactive: 11.7 µM. As to `COc1cccc2c1C(=O)c1c(O)c3c(c(O)c1C2=O)C[C@@](O)(C(C)=O)C[C@@H]3OC1CC(N(C)C)C(O)C(C)O1` (stereo not given in full), the GI50 was active: 0.0035 µM. Regarding `O=C(O[C@H]1[C@@H]2C=CO[C@@H](OC3OC(CO)C(O)C(O)C3O)[C@@H]2[C@@]2(CO)O[C@@H]12)c1ccc(O)c(O)c1` (stereo not given in full), the GI50 was inactive: > 100 µM. For `CCOC(=O)NNC(=O)NCCCCNC(=O)NNC(=O)OCC`, the GI50 was inactive: > 100 µM. For the molecule `Nc1ccccc1CC(O)C(=O)O` (stereo not given), the GI50 is inactive: > 100 µM. The result for `CC1CC2=C(S(=O)(=O)c3ccccc3)CC(S(=O)(=O)c3ccccc3)(S(=O)(=O)c3ccccc3)CC21` (stereo not given) reads inactive: > 100 µM. For `Cc1ccc(C)c(N2C(=O)C(=O)C(c3nc4ccccc4s3)/C(=N/NC(=O)NN)C2=O)c1` (stereo not given), the GI50 was inactive: > 100 µM. As for `COc1cc(C2C3=C(CCC3=O)Oc3cc4c(cc32)OCO4)cc(OC)c1OC` (stereo not given), the GI50 was active: 0.403 µM.

Consider `FC(F)(F)C1(Cl)C(Cl)(c2ccccc2)C1(Cl)c1ccccc1` (stereo not given), for which the GI50 is inactive: 17.1 µM. As to `CN(Cc1c[n+]([O-])c2nc(N)nc(N)c2n1)c1ccc(C(=O)NC23CC4CC(CC(C4)C2)C3)cc1`, the GI50 is inactive: > 100 µM. With `CSc1ccc(/C=C2\N=C(c3ccccc3)N(c3nc4c(Cl)cc(Cl)cc4s3)C2=O)cc1`, the GI50 is inactive: 25.5 µM. The same measure for `CN(C)C1(N(C)C)Oc2c(c(=O)n(C)c(=O)n2C)C(c2ccccc2)C1(F)F` (stereo not given): inactive: > 100 µM; for `C=CC(O)(CBr)CCC(Br)C(=C)C` (stereo not given): inactive: > 10 µM; for `Clc1ccc(OCc2nnc3sc(-c4ccc(-c5ccc(Cl)cc5Cl)o4)nn23)c(Cl)c1`: inactive: 20.9 µM. For `O=C1N[C@@H]2CCCC[C@@H]2C12CCCCC2`, the GI50 was inactive: > 100 µM. Consider `COC(=O)C1SC(SC)=NC12c1ccccc1Nc1ccccc12` (stereo not given), for which the GI50 was inactive: 51.9 µM. The result for `CC1=Nc2ccccc2OC(C)=C1/N=N/c1ccc2[nH]c(C)nc2c1` reads inactive: > 100 µM. Turning to `CC1CC(=O)Nc2ccccc2N1C(=O)C1CC1` (stereo not given), the GI50 was inactive: > 100 µM. Consider `COc1cc(C2c3cc4c(cc3OC(O)C2C)OCO4)cc(OC)c1OC` (stereo not given), for which the GI50 was active: 0.614 µM. On to `O=C(COC(=O)c1cccc2c(=O)c3ccccc3[nH]c12)Nc1ccc(Cl)cc1`, for which the GI50 was inactive: 95.7 µM. Turning to `CCOc1cn(C2CC(O)C(CO)O2)c(=O)[nH]c1=O` (stereo not given), the GI50 was inactive: > 100 µM. For the molecule `O=C(CCN1CCN2c3ccccc3CCC2C1)c1ccc(F)cc1` (stereo not given), the GI50 is inactive: > 100 µM. Turning to `Oc1ccc(/C=N/CC2CCCN3CCCCC23)cc1` (stereo not given), the GI50 is inactive: 24.6 µM.

On to `Cc1c(N)nc(C(CC(N)=O)NCC(N)C(N)=O)nc1C(=O)NC(C(=O)NC(C)C(O)C(C)C(=O)NC(C(=O)NCCc1nc(-c2nc(C(=O)NCCCNCCCCN)cs2)cs1)C(C)O)C(OC1OC(CO)C(O)C(O)C1OC1OC(CO)C(O)C(OC(N)=O)C1O)c1c[nH]cn1` (stereo not given), for which the GI50 was inactive: > 10 µM. With `O=C1CCN2C(=N1)Sc1ccccc12`, the GI50 is inactive: > 100 µM. In the case of `CC(=O)/C=C\C1CC2C=CC1C2` (stereo not given), the GI50 was inactive: 27 µM.

As for `[N-]=[N+]=Nc1c(-c2ccccc2)c(=O)n(-c2ccccc2)c2ccccc12`, the GI50 is inactive: 22.2 µM. As for `CCS(=O)(=O)CCn1cnc2c1c(=O)n(C)c(=O)n2C`, the GI50 was inactive: > 100 µM. The same measure for `COC(=O)/C=C1\SC2(O\C1=N/c1ccccc1)C1CC3CC(C1)CC2C3` (stereo not given): inactive: > 100 µM; for `CCOC(=O)C1=C(C)NC2=C(C(=O)N(c3ccccc3)C2c2ccccc2)C1c1ccccc1` (stereo not given): inactive: 16.6 µM; for `CC(=O)Oc1c(-c2ccccc2)[nH]c2cc([N+](=O)[O-])c(/C(Cl)=C/c3ccccc3)cc12`: inactive: 10.6 µM.

Regarding `Cc1cc(O)nc(CNC(=O)c2ccc3ccccc3c2)n1`, the GI50 was inactive: > 100 µM. For `CC1(CO)OC(n2cnc3cncnc32)CC1O` (stereo not given), the GI50 was inactive: > 100 µM. As for `COc1cc2c3c(c1OCc1ccccc1)NCCC3NCC2` (stereo not given), the GI50 is inactive: > 100 µM. The result for `COc1ccc(N2C(=O)c3cc([N+](=O)[O-])cnc3S2(=O)=O)cc1` reads inactive: > 100 µM; that for `Cc1ncc([N+](=O)[O-])n1CCNC(=O)CCC(=O)NCCCn1ccnc1[N+](=O)[O-]`, inactive: > 100 µM; that for `CCCCCCCCCCCCCCC(O)C1CCC(C(O)CCC(O)CCCCCC(O)CC2=CC(C)OC2=O)O1` (stereo not given), inactive: 1.48 µM.

For the molecule `C=C(Cl)C(Br)(CCl)CCC(Br)C(C)(C)Cl` (stereo not given), the GI50 was inactive: 7.53 µM. On to `O=C(CC(=O)c1ccccc1NC1=Cc2ccccc2C(=O)C1=O)C(=O)NC1=C(Cl)C(=O)c2ccccc2C1=O`, for which the GI50 was inactive: 9.04 µM. For the molecule `C/C(CC(O)(C(F)(F)F)C(F)(F)F)=N/Nc1ccc([N+](=O)[O-])cc1[N+](=O)[O-]`, the GI50 is inactive: 3.22 µM. On to `CC(C)=CC(=O)OC1C2C(C)C(=O)OC2C(O)C(C)C2C=CC(=O)C21C` (stereo not given), for which the GI50 was inactive: 5.24 µM.

For the molecule `Cn1c(N2CCCC2)c(C=O)c(=O)n(C)c1=O`, the GI50 was inactive: > 100 µM. With `O=S(O)c1cc(Cl)c(O)c(Cl)c1`, the GI50 was inactive: > 100 µM. On to `N#CC1C(=O)C(=O)N(c2ccccc2)C1=O` (stereo not given), for which the GI50 is inactive: > 100 µM. On to `O=C1C2c3[nH]c4ccccc4c3C3CCCCCC3C2C(=O)N1c1ccccc1` (stereo not given), for which the GI50 was inactive: > 64.9 µM. With `CSc1cc(-c2ccccn2)nc(-c2ccccn2)c1`, the GI50 was active: 0.0621 µM. As for `c1cc(-c2cn3c(n2)SCC3)ccn1`, the GI50 is inactive: > 100 µM. The same measure for `CN(C)CCNC(=O)C(C)(C)Oc1ccc(C(=O)c2ccc(Cl)cc2)cc1Cl`: inactive: 11.9 µM. With `Nc1nnc2ccc(Cl)cc2[n+]1[O-]`, the GI50 was inactive: 26.3 µM.

With `COc1ccc(/C(C#N)=C(/N)SCc2ccccc2Cl)cc1`, the GI50 is inactive: 26.2 µM. `CC(=O)OC(Cn1cncn1)(Cn1cncn1)c1ccc(Cl)cc1Cl`: the GI50 was inactive: > 100 µM. The same measure for `COC1C=CC(O)C(CO)O1` (stereo not given): inactive: > 100 µM; for `CC(=O)NNC1=NN(C(C)=O)C2(S1)C(=O)Nc1ccc(Br)cc12` (stereo not given): inactive: > 100 µM. Take `O=c1[nH]nc(Cc2ccccc2)n1/N=C/c1ccc([N+](=O)[O-])cc1`: the GI50 is inactive: > 100 µM. For the molecule `CN(C)c1nc(Cl)c2c(-c3ccccc3)c(-c3ccccc3)oc2n1`, the GI50 is inactive: > 100 µM. On to `O=[N+]([O-])c1ccc(O)c(/C=N/CC2CCCN3CCCCC23)c1` (stereo not given), for which the GI50 is inactive: 64.9 µM. On to `CC(O)CCCOC(c1ccccc1)(c1ccccc1)c1ccccc1` (stereo not given), for which the GI50 is inactive: 14.5 µM. The result for `CCOC(=O)/C=C(/C(=O)OCC)n1cc(C)c(=O)[nH]c1=O` reads inactive: 15.4 µM; that for `O=C(O)C(O)C(O)C(O)C(=O)CO` (stereo not given), inactive: > 100 µM. The same measure for `CC(c1ccccc1)N1O[C@]12CC[C@@]1(C)C(CCCC13OCCO3)C2` (stereo not given in full): inactive: > 100 µM; for `COc1ccc(C(=O)C2CCC(C(=O)O)C2)cc1` (stereo not given): inactive: > 100 µM.

In the case of `COC(=O)CC(C(C(=O)OCc1ccccc1)C(C)O)N1C(=O)OCC1c1ccccc1` (stereo not given), the GI50 is inactive: > 100 µM.

Take `CCOc1ccc(/C=C/c2cc(OC)c(OC)c(OC)c2)cc1`: the GI50 was inactive: 4.91 µM.

(Values after ChEMBL document CHEMBL1201862, “PubChem BioAssay data set” (2004).)
